Reference: PubChem BioAssay AID588579 (National Center for Advancing Translational Sciences (NCATS), 2011)
Out of some 400,000 compounds screened, about 2,200 (0.55%) were called active. About 1% were inconclusive and are not listed. Calls come from the whole dose curve; as a rule, active = well fitted inhibition curve with a large enough effect; inconclusive = small, poorly fitted or top-dose-only effect, or another doubt; inactive = no such curve, though single readings can be large or run the other way. The list shows a part of the results, in another mix than the full data. A structure can be active in one record and inactive in another.

Each compound was assayed against DNA polymerase kappa (Homo sapiens) (UniProt Q9UBT6) (assay: qHTS for Inhibitors of Polymerase Kappa). Settings: purified Pol kappa, fluorescent DNA synthesis assay, 10 min; series mostly up to 107 µM; activity, negative = inhibition: at the top concentration.
Outline: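 First, compounds were pin-transferred onto 10 nM Pol kappa. After 15 min at room temperature, substrate was added to 50 nM final. Fluorescence was then measured kinetically at 0 and 10 min.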
% is set by controls: 0 for no effect and ±100 for the full control effect; potency is the fitted concentration of half-maximal effect.

UniProt Q9UBT6, sequence (Q9UBT6 whole entry, looked up): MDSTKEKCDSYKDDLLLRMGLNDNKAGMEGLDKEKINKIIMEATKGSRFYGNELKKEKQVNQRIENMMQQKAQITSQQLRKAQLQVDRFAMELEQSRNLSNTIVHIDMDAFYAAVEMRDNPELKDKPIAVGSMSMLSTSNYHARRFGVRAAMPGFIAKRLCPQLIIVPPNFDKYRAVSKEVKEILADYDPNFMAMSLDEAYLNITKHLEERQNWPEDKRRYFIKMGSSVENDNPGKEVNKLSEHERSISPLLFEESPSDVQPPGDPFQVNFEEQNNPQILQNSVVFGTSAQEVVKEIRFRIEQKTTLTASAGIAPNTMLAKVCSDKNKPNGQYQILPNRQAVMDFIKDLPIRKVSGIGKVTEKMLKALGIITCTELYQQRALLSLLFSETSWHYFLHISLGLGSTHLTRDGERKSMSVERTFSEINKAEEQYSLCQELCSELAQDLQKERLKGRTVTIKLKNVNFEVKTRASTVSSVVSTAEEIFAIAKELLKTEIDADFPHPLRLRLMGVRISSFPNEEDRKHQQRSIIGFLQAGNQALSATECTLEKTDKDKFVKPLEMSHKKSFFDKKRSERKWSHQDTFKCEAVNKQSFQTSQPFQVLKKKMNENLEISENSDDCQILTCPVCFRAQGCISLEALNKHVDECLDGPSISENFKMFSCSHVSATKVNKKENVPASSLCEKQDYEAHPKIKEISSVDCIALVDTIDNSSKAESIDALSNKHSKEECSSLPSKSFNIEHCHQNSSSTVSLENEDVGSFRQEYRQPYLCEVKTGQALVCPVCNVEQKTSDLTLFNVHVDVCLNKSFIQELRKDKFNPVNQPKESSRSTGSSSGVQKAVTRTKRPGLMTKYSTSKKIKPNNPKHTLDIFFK

Row | Compound | activity, negative = inhibition | Potency
1 | C=N[C@H](C(=O)N[C@@H]1C(=O)N2[C@@H]1SC(C)(C)[C@@H]2C(=O)O)c1ccccc1 | inactive: -3.42% [at 12 µM] | 
2 | OC[C@@H]1O[C@H](O)[C@H](O)[C@@H](O)[C@@H]1O | inactive: -3.03% [at 60.1 µM] | 
3 | COc1ccc(NC(=O)c2ccc(-c3ccc(-c4noc(C)n4)cc3C)cc2)cc1OCCN(C)C |  | inactive
4 | O=c1c(O)c(-c2ccc(O)c(O)c2)oc2c(OC3OC(CO)C(O)C(O)C3O)c(O)cc(O)c12 (configuration not stated) |  | active: 3.16 µM
5 | O=C1OCCN1C(=O)[C@H]1[C@H](c2ccccc2)C(c2ccc(F)cc2)=NN1c1ccccc1 | inactive: 11.5% | 
6 | O=C(O)c1cccc(-n2cccc2/C=C2/NC(=O)N(c3ccc(Cl)cc3)C2=O)c1 |  | active: 1.58 µM
7 | Cc1cc(C)c2nc(-c3ccco3)cc(C(=O)O)c2c1 |  | active: 22.4 µM
8 | COc1cc2c(c(OC)c1OC)C(c1ccccc1C)CC(=O)O2 (configuration not stated) | inactive: 2.85% | 
9 | Cc1nc2scc(C)n2c(=O)c1S(=O)(=O)Nc1ccc(N2CCOCC2)c(Cl)c1 | inactive: 9.88% | 
10 | C=C[C@@]1(C)CC(=O)[C@]2(O)[C@@]3(C)[C@H](O)CCC(C)(C)[C@@H]3[C@H](O)[C@H](OC(C)=O)[C@@]2(C)O1 | inactive: 14.6% [at 60.1 µM] | 
11 | CO[C@@]12[C@H](COC(N)=O)C3=C(C(=O)C(C)=C(N)C3=O)N1C[C@@H]1N[C@@H]12 | inactive: -11.8% | 
12 | C[C@]12CC[C@@H]3c4ccc(O)cc4CC[C@H]3[C@@H]1CC[C@H]2O | inactive: -15.6% [at 60.1 µM] | 
13 | CCC(C(=O)OCCN(CC)CC)c1ccccc1 (configuration not stated) | inactive: 0.95% [at 19.4 µM] | 
14 | COc1ccc(Cn2c(CCC(=O)Nc3ccccc3OC)nc3cccnc32)cc1 | inactive: -1.07% | 
15 | Cc1ccc(-c2nc3c(c(SCC(=O)Nc4cccc(C(=O)O)c4)n2)Cc2cccc(C)c2O3)cc1 |  | inactive
16 | CC(=O)OC1CC2CCC1(C)C2(C)C (configuration not stated) |  | inactive
17 | Cc1ccc(NC(=O)CN(C)C(=O)c2cccc(-n3cccc3)c2)cc1 |  | active: 17.8 µM
18 | CC(/C=C/C1(O)C(C)CC(O)CC1(C)C)OC1OC(CO)C(O)C(O)C1O (configuration not stated) |  | active: 56.2 µM
19 | O=C(c1ccc(C(F)(F)F)cc1)N1CCC(=O)N(C(COCc2ccc(C(F)(F)F)cc2)Cc2ccccc2)CC1 (configuration not stated) | inactive: -0.0329% | 
20 | CC[C@H](C)[C@H](NC(=O)[C@H](Cc1ccc(O)cc1)NC(=O)[C@H](CCCNC(=N)N)NC(=O)[C@H](CCCNC(=N)N)NC(=O)[C@H](CC(C)C)NC(=O)[C@H](CCC(N)=O)NC(=O)[C@@H](NC(=O)[C@H](CCC(=O)O)NC(=O)[C@H](Cc1ccc(O)cc1)NC(=O)[C@H](CCC(N)=O)NC(=O)[C@H](C)NC(=O)[C@H](CCCNC(=N)N)NC(=O)[C@H](CCC(N)=O)NC(=O)[C@H](CCC(=O)O)NC(=O)[C@H](Cc1cnc[nH]1)NC(=O)[C@@H](NC(=O)[C@H](C)NC(=O)[C@H](Cc1ccc(O)cc1)NC(=O)[C@H](CC(=O)O)NC(=O)CNC(=O)[C@@H]1CCCN1C(=O)[C@H](Cc1ccc(O)cc1)NC(=O)[C@H](CCSC)NC(=O)[C@@H]1CCCN1C(=O)[C@H](CCC(=O)O)NC(=O)[C@H](CC(C)C)NC(=O)[C@@H]1CCCN1C(=O)[C@H](C)N)[C@@H](C)O)[C@@H](C)O)C(=O)N[C@@H](CC(N)=O)C(=O)N[C@H](C(=O)N[C@@H](CC(C)C)C(=O)N[C@H](C(=O)N[C@@H](CCCNC(=N)N)C(=O)N1CCC[C@H]1C(=O)N[C@@H](CCCNC(=N)N)C(=O)N[C@@H](Cc1ccc(O)cc1)C(N)=O)[C@@H](C)O)[C@@H](C)O | inactive: 19.1% [at 60.1 µM] | 
21 | CCN1/C(=C/C=C/c2sc3ccccc3[n+]2CC)Sc2ccccc21 |  | active: 11.2 µM

Row | Compound | activity, negative = inhibition | Potency
22 | O=C(O)C1CCCN1 (configuration not stated) | inactive: 11.4% [at 60.1 µM] | 
23 | CC(C)(C)[C@]1(O)CCN2C[C@H]3c4ccccc4CCc4cccc(c43)[C@@H]2C1 |  | inactive
24 | COc1ccc2cc(C(C)C(=O)O)ccc2c1 (configuration not stated) |  | inactive
25 | CCc1nn(CC(=O)NCc2ccccc2Cl)c(=O)c2cccn12 | inactive: -3.43% | 
26 | CN(C)C1C(=O)C(C(N)=O)=C(O)[C@@]2(O)C(=O)C3=C(O)c4c(O)ccc(Cl)c4C(O)[C@H]3C[C@@H]12 (some centres not stated) | inactive: -13.9% [at 60.1 µM] | 
27 | O=C(O)C1=CCCNC1 |  | inactive
28 | C=C[C@]1(C)CC(=O)[C@@]2(O)[C@@]3(C)C(O)CCC(C)(C)C3C(O)C(OC(C)=O)[C@@]2(C)O1 (some centres not stated) | inactive: -3.5% [at 60.1 µM] | 
29 | CC(C)(C)C(=O)OCOP(=O)(OCOC(=O)C(C)(C)C)C(C)(Oc1ccc(O)cc1)P(=O)(OCOC(=O)C(C)(C)C)OCOC(=O)C(C)(C)C |  | active: 35.5 µM
30 | C[C@@H]1O[C@@H](OC[C@@H]2O[C@H](Oc3c(-c4ccc(O)cc4)oc4cc(O)cc(O)c4c3=O)[C@@H](O)[C@H](O)[C@H]2O)[C@H](O)[C@H](O)[C@H]1O | inactive: -3.06% | 
31 | C#Cc1ccc([C@@H]2C=C(C(=O)OCC=C)O[C@H](OCc3ccc(CO)cc3)C2)cc1 | inactive: -21.7% | 
32 | C[C@H]1c2cccc(O)c2C(O)=C2C(=O)C3(O)C(O)=C(C(N)=O)C(=O)[C@@H](N(C)C)[C@@H]3[C@@H](O)[C@@H]21 (some centres not stated) | inactive: 0.57% | 
33 | COc1ccc(/C=C/c2ccc3ccccc3[n+]2C)cc1OC | inactive: -30.1% | 
34 | COc1cc(OC)c2c(-c3ccccc3)cc(=O)oc2c1C(CC(=O)N1CCCC1)c1ccc2c(c1)OCO2 (configuration not stated) | inactive: -26.1% | 
35 | COc1cc2cc(CN(Cc3cccnc3)C(=O)Nc3ccccc3F)c(=O)[nH]c2cc1OC | inactive: 32.3% | 
36 | C[C@@H]1C(c2ccc(F)cc2)=NN(c2ccccc2)[C@H]1C(=O)N1CCOC1=O | inactive: -17.1% | 
37 | H-VLGKLSQELHKLQTYPRTNTGSGTP-NH2 | inactive: 22% [at 60.1 µM] | 
38 | O=C(c1ccc(=O)oc1)N1CCOCC1 |  | active: 50.1 µM
39 | COc1cccc(CNC(=O)CCNS(=O)(=O)c2ccc3c(c2)oc(=O)n3C)c1 | inactive: -10.7% | 
40 | O=[N+]([O-])c1cccc2cn[nH]c12 |  | inactive
41 | COc1cc(/C=C(\C#N)C(=O)Nc2nnc(C(F)(F)F)s2)ccc1OCc1ccc(C(F)(F)F)cc1C(F)(F)F |  | active: 6.7 µM
42 | CC(C)C[C@H](NC(=O)[C@@H](Cc1c[nH]c2ccccc12)NC(=O)[C@@H](Cc1ccc(O)cc1)NC(=O)[C@@H](CO)NC(=O)[C@@H](Cc1c[nH]c2ccccc12)NC(=O)C(Cc1cnc[nH]1)NC(=O)C1CCC(=O)N1)C(=O)N[C@@H](CCCN=C(N)N)C(=O)N1CCC[C@@H]1C(=O)NCC(N)=O (some centres not stated) | inactive: -5.89% [at 19.4 µM] | 
